Displacement data for 30 molecules are collected here from PubChem BioAssay AID1240 (Sanford-Burnham Center for Chemical Genomics, 2008).

In all, about 50,000 compounds went through this assay and about 800 (1.6%) showed an effect of 50% or more. This is one part of the list.

This assay concerns the target Bcl-2-like protein 10 (Homo sapiens) (UniProt Q9HD36). The assay can be described thus: TR3 peptide-Bcl-B binding displacers, biochemical primary FP assay, phenotype converters (AID 1240).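 Further: 0% = Bcl-B with tracer peptide and DMSO and 100% = tracer peptide lacking Bcl-B.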 To be noted: GST-Bcl-B / FITC-TR3 peptide fluorescence polarization; stronger effect = higher value; compound at 3.75 mg/L.
Sequence of UniProt Q9HD36 (Q9HD36 whole entry, looked up): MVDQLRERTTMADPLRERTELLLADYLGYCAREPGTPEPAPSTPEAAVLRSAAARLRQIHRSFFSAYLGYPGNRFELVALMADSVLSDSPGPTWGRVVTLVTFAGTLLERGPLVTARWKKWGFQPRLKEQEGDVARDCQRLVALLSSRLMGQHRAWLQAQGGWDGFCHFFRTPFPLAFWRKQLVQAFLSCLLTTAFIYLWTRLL
For `O=C1CC(N2CCN(c3ncccn3)CC2)C(=O)N1c1ccc(I)cc1` (stereo not given), the displacement is -7.9%.
To `COc1ccc(-n2nc3cc(C)c(NC(=O)COc4ccc(Cl)c(C)c4)cc3n2)cc1` belongs 5.3%; to `CC(C)Oc1ccccc1NS(=O)(=O)c1ccccc1[N+](=O)[O-]`, 7.9%.
On to `O=C(Cc1c[nH]c2ccccc12)N/N=C/c1cccc(F)c1`, for which the displacement came to 5.3%.
To `COc1ccc(C(=O)N2CCN(Cc3cccc(OC)c3OC)CC2)cc1OC` belongs -8%; to `COc1ccc(N(CC(=O)Nc2cccc(C)c2)S(C)(=O)=O)c(OC)c1`, 4.5%; to `O=C(/C=C/c1ccc2c(c1)OCO2)Nc1ccccc1F`, 5.4%.
With `COC(=O)C(=CC(C(=O)OC)C(=O)OC)C(=O)OC` the figure was 16.9%; with `CS(=O)(=O)N(CC(=O)O)c1ccccc1F`, 10.2%; with `CCCc1cc(=O)oc2cc(OCC(=O)c3ccccc3)ccc12`, 3.6%.
With `COc1ccc(OC)c(NC(=O)C2CC(=O)N(c3ccc(Br)cc3)C2)c1` (stereo not given) the figure was -4%; with `C=CCN(c1ccc(C(=O)O)cc1)S(=O)(=O)c1ccc(NC(=O)OC)cc1`, -14.8%.
Regarding `CC(=O)CCc1oc2ccc(C)cc2c1Cc1ccccc1`, the displacement was -3.3%.
With `COc1ccc(-c2cc(-c3ccccc3)nc(N3CCCCC3)n2)cc1` the figure was -11.3%.
As to `Cc1cc(OCC(=O)Nc2cccc3nsnc23)ccc1Cl`, the displacement is 38.2%.
Consider `CNC1(c2ccc(OC)cc2)Oc2ccccc2C(C#Cc2ccccc2)=C1C` (stereo not given), for which the displacement was determined as 1.6%.
`Cn1c(/C=C(/OC(=O)c2ccc(F)cc2)c2ccc(F)cc2)nc2ccccc21`: the displacement is -7.7%.
To `O=C(Nc1ccc(Br)cc1)c1ccccc1F` belongs 11.9%.
For the molecule `COc1cccc(/C=C2\SC(=S)N(NC(=O)c3cccnc3)C2=O)c1`, the displacement was -5.8%.
To `CCOc1ccccc1NC(=O)c1c(NC(=O)COc2ccccc2)sc2c1CCC2` belongs -6.5%; to `COc1ccc(/C=C/C(=O)Nc2ccccc2C(F)(F)F)cc1Br`, 11.9%; to `CCCOc1ccc(/C=C2/C(=O)NC(=O)N(c3ccc(OCC)cc3)C2=O)cc1OC`, -20.1%.
With `N/C(=N/OC(=O)c1ccccc1I)c1nonc1N` the figure was -16.3%.
`CC(=O)Nc1ccccc1NC(=O)COc1cccc2ccccc12`: the displacement was -0.3%.
As for `O=C(CCc1ccccc1)Nc1nc(-c2ccc(Cl)c(Cl)c2)cs1`, the displacement is -5.1%.
With `CC(C)n1c(C(O)c2ccc(OCc3ccccc3)cc2)nc2ccccc21` (stereo not given), the displacement is -19.8%.
With `Cc1ccc(/C=N\NC(=O)c2ccc(O)cc2)cc1` the figure was 5.9%; with `N#C/C(=C/c1ccccc1[N+](=O)[O-])C(=O)Nc1cccc(Br)c1`, -4.9%.
As for `Cn1c(-c2ccc(-c3nc4cnccc4n3C)cc2)nc2cnccc21`, the displacement is -0.9%.
Consider `Cc1cc(/C=C2\C(=O)NC(=S)N(c3ccccc3F)C2=O)c(C)n1-c1cccc([N+](=O)[O-])c1`, for which the displacement is 43.6%.
